Among all 46,000 compounds or so, about 60 (0.1%) were called active. About 3% were inconclusive and are not listed. Calls come from the whole dose curve; as a rule, active = well fitted inhibition curve with a large enough effect; inconclusive = small, poorly fitted or top-dose-only effect; inactive = no such curve, though single readings can be large or run the other way. The list shows a part of the results.
Assay: Primary qHTS assay for Inhibitors of ovarian cancer metastasis using an organotypic tumor microenvironment (TME) model.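 For activity change, negative = inhibition: plate controls were DMSO wells for no effect and tomatine positive control wells for full effect.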 Note: nearly all actives have a fitted effect of over 65% in size.
Conditions: SKOV3ip1-GFP adhesion/invasion on 3D omental model, fluorescence; series mostly up to 45.8 µM; activity change, negative = inhibition: at the top concentration
Summary of the method: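 Primary human omental fibroblast/mesothelial 3D culture pre-formed 48 h. SKOV3ip1-GFP cells added with compounds (0.36-46 umol/L), incubated 2 h RT/16 h 37 C, fixed; GFP cells quantified at 488/509 nm.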

Activity change, negative = inhibition, inactive:
COc1ccc(-n2nc(C(N)=O)c3c2C(=O)N(c2ccc(N4CCCCC4=O)cc2)CC3)cc1 -29.2%, Cc1ccc(-c2noc(-c3cccnc3N(C)Cc3ccc(Cl)cc3)n2)cc1 -8.71%, COc1cccc(NCc2nnc3n2CCCCC3)c1 5.85%, CCCSCCCNC(=O)c1sc2nc(C)cc(C)c2c1-n1cccc1 6.17%, Cc1ccc(-c2nc(CS(=O)(=O)CC(=O)N3CCN(c4ccccc4)CC3)c(C)o2)cc1 3.7%, COc1cc(Br)cc2cc(S(=O)(=O)c3ccccc3)c(=O)oc12 -2.02%, COc1ccc(CNC(=O)c2cc3c(=O)n(Cc4ccc(OC)cc4)ccc3nc2C)cc1 -22.5%, CCOc1ccc(CNCCSc2nnnn2C)cc1 19.4%, Cc1ccc(-n2nc(C)c3c(C)c(CCC(=O)NCc4ccc(Cl)cc4)c(C)nc32)cc1 -0.342%, COc1ccc(-c2nc3ccccc3s2)cc1NC(=O)c1cccc(F)c1 -4.83%, COc1ccc(OCC(=O)Nc2cc(-c3nc4ccccc4o3)ccc2Cl)cc1 -1.66%, Cc1ccc2c(c1)c1c(c(=O)n(-c3cccc(Cl)c3)c(=O)n1CC(N)=O)n2C 2.6%, COc1cc(Nc2nc3c(S(=O)(=O)c4cccc(Cl)c4)nnn3c3ccsc23)cc(OC)c1 -2.91%, Cc1ccccc1OCCSc1nc2ccc(NC(=O)c3ccco3)cc2s1 8.92%, Cc1ccc(NC(=O)CSc2nc3nccnc3c(=O)n2CCc2c[nH]c3ccccc23)cc1C 7.38%, CCC(=O)N1CCc2cc(S(=O)(=O)NCCC(=O)Nc3ccc(C)cc3C)ccc21 0.218%, CC1CCc2noc(NC(=O)c3ccc([N+](=O)[O-])cc3)c2C1 (configuration not stated) -24.5%, Cc1ccc(NC(=O)CN2C(=O)c3ccccc3Sc3ccc(C(=O)N4CCOCC4)cc32)cc1C 7.97%, COc1ccccc1OCCNCC(O)COc1cccc2[nH]c3ccccc3c12 (configuration not stated) -13.6%, O=C1Nc2ccccc2C1Cc1ccc(Br)cc1 (configuration not stated) -5.37%, CCC(Sc1nc2ccncc2[nH]1)C(=O)Nc1cc(C)ccc1C (configuration not stated) -7.76%, Cc1ccc(CNC(=O)Cn2ccn(-c3ccc(F)c(F)c3)c(=O)c2=O)cc1 -14.9%, CC(=O)c1cccc(NC(=O)c2cc3sc(Cl)cc3n2C)c1 -13.2%, Oc1c(C(c2ccc(Cl)cc2Cl)N2CCN(Cc3ccccc3)CC2)sc2nc(-c3ccco3)nn12 (configuration not stated) 1.64%, CC(C)c1nc(CN(C)C(=O)N[C@H](C(=O)N[C@@H](Cc2ccccc2)C[C@H](O)[C@H](Cc2ccccc2)NC(=O)OCc2cncs2)C(C)C)cs1 -20.7%, CCOCCCNC(=O)C(c1ccc(Cl)cc1)N(Cc1ccc2c(c1)OCO2)C(=O)c1ccc(NC(C)=O)cc1 (configuration not stated) -2.52%, Cc1ccc(C2N3CC4(C)CN2CC(c2ccccc2)(C3)C4=O)cc1 (configuration not stated) 2.44%, COCCNC(=O)CCCn1c(SCc2ccccc2C)nc2c(sc3ccccc32)c1=O -0.649%, COC(=O)c1cc(NC(=O)Cn2ncc3c([nH]c4ccccc43)c2=O)cc(C(=O)OC)c1 -0.471%, CCCCN(C)C(=O)C1CCC(Cn2c(=O)[nH]c3ccsc3c2=O)CC1 (configuration not stated) 29.3%, Cc1ccc2c(CC(=O)Nc3ccc(S(=O)(=O)N4CCCC(C)C4)cc3)coc2c1 (configuration not stated) -21.1%, O=C(NCCc1ccccc1)c1ccc2c(c1)CCN2S(=O)(=O)c1ccc(Cl)cc1 0.0812%, CC1CCN(S(=O)(=O)c2ccc3c(c2)N(CC(=O)NCCN(C)C)C(=O)CS3)CC1 11.3%, O=C(O)c1ccc2c(c1)N(Cc1ccc(F)cc1)C(=O)c1ccccc1S2=O (configuration not stated) 25.1%, Fc1ccc(-n2nc(-c3ccccc3)c3cnc4ccccc4c32)cc1Cl 2.85%, Cc1oc2ncnc(N3CCOCC3)c2c1C(=O)Nc1ccc(Br)cc1F -9.52%, OC(c1ccccc1)c1nc2ccccc2n1Cc1c(F)cccc1Cl (configuration not stated) 14.6%, O=C(Nc1ccc(Cl)cc1F)c1cc(S(=O)(=O)NC2CCCCCC2)ccc1F 11.8%, CCCc1nn2c(=O)cc(COC(=O)c3ccccc3NC(=O)c3ccc(OCC)cc3)nc2s1 4.28%, CCc1ccc(NC(=O)CN2C(C(=O)OC)=C(c3ccccc3)c3ccccc3S2(=O)=O)cc1 -28.6%, CC(C)CCNC(=O)C1CCC(CNS(=O)(=O)c2cccc3nsnc23)CC1 (configuration not stated) -4.3%, COCCNC(=O)CSc1nc(-c2ccc(C)cc2)[nH]c1-c1ccc(OC)cc1 7.34%, O=C(CSc1nc(=O)n(Cc2ccccn2)c2c1CCC2)Nc1cccc(Cl)c1 5.73%, Cc1ccc(-c2c3c(=O)n(C)c(=O)n(C)c3c3c(C)nc4ccccc4n23)cc1 -9.04%, Cc1cc(N2CCN(c3ccc(F)cc3)CC2)n2cnnc2n1 1.93%, COc1ccc(NC(=O)Cn2ccn(-c3ccc(C)c(C)c3)c(=O)c2=O)cc1Cl -4.82%, Cc1cccc(-c2nc3cc(NC(=O)COc4ccccc4F)ccc3o2)c1 -9.87%

outcome, inactive:
CCOc1ccc(NC(=O)CN(c2ccc(C)cc2)S(=O)(=O)c2cccs2)cc1, CCc1ccc(C(=O)c2cn(CC(=O)Nc3cc(OC)cc(OC)c3)c3ccc(CC)cc3c2=O)cc1, CCc1cccc(C)c1Nc1c(-c2ccc(N(C)C)cc2)nc2cnccn12, CCOc1ccc(NC(=O)Cn2nc(CC)n3c(cc4sccc43)c2=O)cc1, COC(=O)c1ccccc1NC(=O)Cn1c(=O)n(-c2ccc(C)cc2)c(=O)c2ccccc21, CCCn1c(=N)c(C(=O)NCc2ccco2)cc2c(=O)n3cc(C)ccc3nc21, CCC(=O)Nc1ccc(-c2nc3ncccc3o2)cc1C, Cc1ccc(CNC(=O)c2ccc(N3Cc4ccccc4Oc4ncccc43)s2)cc1, CCOc1ccc(C(=O)Nc2ccc(C(=O)OCc3cc(=O)n4c(C)csc4n3)cc2)cc1, CCn1cc(/C=C(\NC(=O)c2ccccc2Cl)C(=O)NCCCn2ccnc2)c2ccccc21, O=C(Cn1c(=O)c2cccn2c2ccc(F)cc21)Nc1cccc(F)c1, COc1ccccc1CNS(=O)(=O)c1c(C)nc2sc(C)cn2c1=O, COc1ccccc1CNc1ncnc2c1nc1n2CCCC1, Cc1ccc(Cl)cc1NC(=O)c1cc(S(=O)(=O)N2CCOCC2)cn1C, CCOc1ccc(-c2cc3c(=O)n(CC(=O)NCc4ccccc4)ccn3n2)cc1

— PubChem BioAssay AID1963576 (National Center for Advancing Translational Sciences (NCATS), 2024)
